Laboratory results as given in patent publication US20140044674A1 (Hoffmann-La Roche, published 2014).

Experiments:
[1] = molecular target: T1, recombinant human FAP coated on cell culture plates (human, UniProt Q12884 26-760, limits assumed); test: cell-based or functional assay
[2] = molecular target: T1, recombinant human FAP coated on cell …; test: cell-based or functional assay; remark: listed apart in the source
[3] = molecular target: T2, His-tagged human FAP ECD (human, UniProt Q12884 27-760); test: SPR ProteOn XPR36, 25 C; His-tagged FAP captured by anti-penta-His IgG, construct as analyte
T2 construct: also called hu FAP
Description: (§1) To determine the affinities to FAP, the target protein was captured via its H6-tag by a covalently immobilized anti-H6 antibody (FIG. 9A). Briefly, anti-penta His IgG (Qiagen #34660, mouse monoclonal antibody) was immobilized at high levels (up to ˜5.000 RU) at 30 μ/min onto separate vertical channels of a GLM chip by simultaneously activating all channels for 5 min with a freshly prepared mixture of 1-ethyl-3-(3-dimethylaminopropyl)-carboiimide (EDC) and N-hydroxysuccinimide (sNHS), subsequently injecting 15 μg/ml anti-penta His IgG in 10 mM sodium acetate buffer pH 4.5 for 180 sec. Channels were blocked using a 5-min injection of ethanolamine. H6-tagged FAP from different species (see SEQ ID NOs 81, 83 and 85) was captured from a 5 μg/ml dilution in running buffer along the vertical channels for 60 s at 30 μl/min to achieve ligand densities between ˜250 and 600 RU. In a one-shot kinetic assay set-up (OSK), antibody-IL-10 fusion constructs were injected as analytes along the horizontal channels in a five-fold dilution series ranging from 50 to 0.08 nM at 100 μl/min. Association phase was recorded for 180 s, dissociation phase for 600 s. […] Running buffer (PBST) was injected along the sixth channel to provide an “in-line” blank for referencing. Association rates (kₒₙ) and dissociation rates (koff) were calculated using a simple 1:1 Langmuir binding model (ProteOn Manager software version 2.1) by simultaneously fitting the association and dissociation sensorgrams. The equilibrium dissociation constant (KD) was calculated as the ratio koff/kₒₙ.

[4] = molecular target: T3, His-tagged cynomolgus FAP ECD (cynomolgus, UniProt Q12884 27-760 (human entry)); test: as above
T3 construct: also called cyno FAP
Description: as §1

[5] = molecular target: T4, His-tagged mouse FAP ECD (mouse, UniProt P97321 27-761); test: as above
T4 construct: also called mu FAP; murine FAP
Description: as §1

[6] = molecular target: T1, recombinant human FAP coated on cell …; test: cell-based or functional assay; remark: listed apart in the source
[7] = molecular target: T4, His-tagged mouse FAP ECD; test: SPR ProteOn XPR36, 25 C; His-tagged FAP captured by anti-penta-His IgG, construct as analyte; off-rate could not be fitted, estimate used
Description: as §1

[8] = molecular target: T1, recombinant human FAP coated on cell …; test: cell-based or functional assay; remark: listed apart in the source
[9] = molecular target: T1, recombinant human FAP coated on cell …; test: cell-based or functional assay; remark: listed apart in the source
[10] = molecular target: T1, recombinant human FAP coated on cell …; test: cell-based or functional assay; remark: listed apart in the source
[11] = molecular target: T1, recombinant human FAP coated on cell …; test: cell-based or functional assay; remark: listed apart in the source
[12] = molecular target: T4, His-tagged mouse FAP ECD; test: SPR ProteOn XPR36, 25 C; His-tagged FAP captured by anti-penta-His IgG, construct as analyte; KD calculated with the estimated koff
Description: as §1

[13] = molecular target: T1, recombinant human FAP coated on cell …; test: cell-based or functional assay; remark: listed apart in the source
[14] = molecular target: T1, recombinant human FAP coated on cell …; test: cell-based or functional assay; remark: listed apart in the source
[15] = molecular target: T1, recombinant human FAP coated on cell …; test: cell-based or functional assay; remark: listed apart in the source
[16] = molecular target: T5, IL-10R on freshly isolated human blood monocytes (human, UniProt Q13651 22-578; Q08334 20-325); test: cell-based or functional assay
T5 sequence (looked up) 1: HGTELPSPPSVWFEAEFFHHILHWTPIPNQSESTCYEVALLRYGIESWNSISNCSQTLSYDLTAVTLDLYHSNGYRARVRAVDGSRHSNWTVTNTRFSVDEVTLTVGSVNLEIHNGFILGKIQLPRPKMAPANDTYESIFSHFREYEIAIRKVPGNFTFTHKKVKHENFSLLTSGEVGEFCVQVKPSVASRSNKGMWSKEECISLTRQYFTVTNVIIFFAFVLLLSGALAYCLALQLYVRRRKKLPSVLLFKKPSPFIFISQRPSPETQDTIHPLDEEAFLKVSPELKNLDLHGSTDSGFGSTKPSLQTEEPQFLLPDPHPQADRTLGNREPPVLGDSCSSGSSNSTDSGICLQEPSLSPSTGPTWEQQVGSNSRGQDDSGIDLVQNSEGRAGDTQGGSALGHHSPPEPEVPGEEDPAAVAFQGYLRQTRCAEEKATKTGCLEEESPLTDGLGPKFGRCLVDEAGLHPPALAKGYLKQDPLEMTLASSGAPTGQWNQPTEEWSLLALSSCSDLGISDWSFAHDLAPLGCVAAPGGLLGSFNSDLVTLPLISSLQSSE
T5 sequence (looked up) 2: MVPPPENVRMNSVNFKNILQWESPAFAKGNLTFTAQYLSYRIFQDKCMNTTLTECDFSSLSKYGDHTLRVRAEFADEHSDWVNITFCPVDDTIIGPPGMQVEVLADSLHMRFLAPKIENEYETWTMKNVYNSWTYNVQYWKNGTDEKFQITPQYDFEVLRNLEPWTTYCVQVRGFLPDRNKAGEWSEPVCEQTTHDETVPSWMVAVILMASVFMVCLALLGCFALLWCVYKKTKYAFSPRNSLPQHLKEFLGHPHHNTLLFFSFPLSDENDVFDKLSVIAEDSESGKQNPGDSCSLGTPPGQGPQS

B1: 4G8 IgG-IL-10 (other)
heavy: [about 100 residues omitted here][about 120 residues omitted here][human IgG1 Fc with changes omitted here]GGGGSGGGGSGGGGSGGGGSSPGQGTQSENSCTHFPGNLPNMLRDLRDAFSRVKTFFQMKDQLDNLLLKESLLEDFKGYLGCQALSEMIQFYLEEVMPQAENQDPDIKAHVNSLGENLKTLRLRLRRCHRFLPCENKSKAVEQVKNAFNKLQEKGIYKAMSEFDIFINYIEAYMTMKIRN
light: EIVLTQSPGTLSLSPGERATLSCRASQSVSRSYLAWYQQKPGQAPRLLIIGASTRATGIPDRFSGSGSGTDFTLTISRLEPEDFAVYYCQQGQVIPPTFGQGTKVEIKRTVAAPSVFIFPPSDEQLKSGTASVVCLLNNFYPREAKVQWKVDNALQSGNSQESVTEQDSKDSTYSLSSTLTLSKADYEKHKVYACEVTHQGLSSPVTKSFNRGEC
notes: Fusion of anti-FAP IgG1 (clone 4G8) and IL-10; the two IL-10 monomers dimerize within the molecule; also called IgG-IL-10 (clone 4G8)
EC50, suppression of hIL-1β production by monocytes, set-up (b) (immobilized), donor 3 [1]: 0.2 pM
EC50, suppression of hIL-6 production by monocytes, set-up (b) (immobilized), donor 3 [1]: 1 pM
EC50, suppression of hTNFα production by monocytes, set-up (b) (immobilized), donor 3 [1]: 0.2 pM
EC50, suppression of hIL-6 production by monocytes, set-up (b) (immobilized) [2]: 4 pM
Kd [3]: 40.7 pM
koff [3]: 0.000124 s⁻¹
kon [3]: 3.04e+06 M⁻¹ s⁻¹
Kd [4]: 29 pM
koff [4]: 0.000106 s⁻¹
kon [4]: 3.66e+06 M⁻¹ s⁻¹
kon [5]: 1.55e+06 M⁻¹ s⁻¹
hIL-6 EC50 [nM], construct immobilized on FAP coated at 0.25 µg/ml, monocytes donor 5 [6]: 0.019 nM
hIL-6 EC50 [nM], construct immobilized on FAP coated at 0.5 µg/ml, monocytes donor 5 [6]: 0.001 nM
hIL-6 EC50 [nM], construct immobilized on FAP coated at 1 µg/ml, monocytes donor 5 [6]: 0.002 nM
hIL-6 EC50 [nM], construct immobilized on FAP coated at 5 µg/ml, monocytes donor 5 [6]: 0.0004 nM
koff [7]: ~1e-05 s⁻¹
EC50, suppression of hIL-1β production by monocytes, set-up (b) (immobilized), donor 1 [8]: 1 pM
EC50, suppression of hTNFα production by monocytes, set-up (b) (immobilized), donor 1 [8]: 1 pM
EC50 [nM] IL-6, suppression of IL-6 production by monocytes, set-up (b) (immobilized), donor 4 [9]: 0.002 nM
EC50, suppression of hIL-1β production by monocytes, set-up (b) (immobilized), donor 2 [10]: 0.2 pM
EC50, suppression of hIL-6 production by monocytes, set-up (b) (immobilized), donor 2 [10]: 1 pM
EC50, suppression of hTNFα production by monocytes, set-up (b) (immobilized), donor 2 [10]: 0.2 pM
EC50, suppression of LPS-induced hIL-1β production by monocytes, set-up (b) (immobilized), donor 2 [11]: 0.2 pM
EC50, suppression of LPS-induced hIL-6 production by monocytes, set-up (b) (immobilized), donor 2 [11]: 1 pM
EC50, suppression of LPS-induced hTNFα production by monocytes, set-up (b) (immobilized), donor 2 [11]: 0.2 pM
Kd [12]: 6.45 pM
EC50, suppression of LPS-induced hIL-1β production by monocytes, set-up (b) (immobilized), donor 1 [13]: 1 pM
EC50, suppression of LPS-induced hIL-6 production by monocytes, set-up (b) (immobilized), donor 1 [13]: 2 pM
EC50, suppression of LPS-induced hTNFα production by monocytes, set-up (b) (immobilized), donor 1 [13]: 1 pM
EC50, suppression of LPS-induced hIL-1β production by monocytes, set-up (b) (immobilized), donor 3 [14]: 0.2 pM
EC50, suppression of LPS-induced hIL-6 production by monocytes, set-up (b) (immobilized), donor 3 [14]: 1 pM
EC50, suppression of LPS-induced hTNFα production by monocytes, set-up (b) (immobilized), donor 3 [14]: 0.2 pM
EC50 [nM] IL-6, suppression of IL-6 production by monocytes, Set-up (b), donor 7 [15]: 0.009 nM

B2: 4B9 IgG-(IL-10M1)2 (other)
heavy: EVQLLESGGGLVQPGGSLRLSCAASGFTFSSYAMSWVRQAPGKGLEWVSAIIGSGASTYYADSVKGRFTISRDNSKNTLYLQMNSLRAEDTAVYYCAKGWFGGFNYWGQGTLVTVSSASTKGPSVFPLAPSSKSTSGGTAALGCLVKDYFPEPVTVSWNSGALTSGVHTFPAVLQSSGLYSLSSVVTVPSSSLGTQTYICNVNHKPSNTKVDKKV[human IgG1 Fc with changes omitted here]GGGGSGGGGSGGGGSSPGQGTQSENSCTHFPGNLPNMLRDLRDAFSRVKTFFQMKDQLDNLLLKESLLEDFKGYLGCQALSEMIQFYLEEVMPQAENQDPDIKAHVNSLGENLKTLRLRLRRCHRFLPCENGGGSGGKSKAVEQVKNAFNKLQEKGIYKAMSEFDIFINYIEAYMTMKIRN
light: EIVLTQSPGTLSLSPGERATLSCRASQSVTSSYLAWYQQKPGQAPRLLINVGSRRATGIPDRFSGSGSGTDFTLTISRLEPEDFAVYYCQQGIMLPPTFGQGTKVEIKRTVAAPSVFIFPPSDEQLKSGTASVVCLLNNFYPREAKVQWKVDNALQSGNSQESVTEQDSKDSTYSLSSTLTLSKADYEKHKVYACEVTHQGLSSPVTKSFNRGEC
notes: also called IgG-(IL-10M1)2 (clone 4B9)
EC50 [nM] pSTAT3 induction, primary monocytes [16]: 0.435 nM
Kd [3]: 16.8 pM
koff [3]: 9.73e-05 s⁻¹
kon [3]: 5.8e+06 M⁻¹ s⁻¹
Kd [4]: 12.1 pM
koff [4]: 7.77e-05 s⁻¹
kon [4]: 6.4e+06 M⁻¹ s⁻¹
Kd [5]: 36.9 pM
koff [5]: 0.000109 s⁻¹
kon [5]: 2.97e+06 M⁻¹ s⁻¹
